Measurements reported in PubChem BioAssay AID1347073 (National Center for Advancing Translational Sciences (NCATS), 2019).
Hit rate of the full screen: of about 45,000 compounds, about 200 (0.44%) were called active. Another 7% or so got no clear call; they are omitted. The call rests on the fitted dose curve; in most records, active means well fitted activation curve with a large enough effect; inconclusive means small, poorly fitted or top-dose-only effect; inactive means no such curve, though single readings can be large or run the other way. The list shows a part of the results.

assay: qHTS of TDP-43 Inhibitors: NCGC Sytravon Library Screen; conditions: yeast TDP-43 toxicity rescue, BacTiter-Glo growth, 24 h; series mostly up to 46.1 µM; growth rescue (activation): at the top concentration; further: 0% is about no effect; nearly all actives have a fitted effect of over 55% in size
Procedure, shortened: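 TDP-43-expressing yeast, pregrown in raffinose, seeded at OD600 0.02 in galactose medium with compound for 24 hr at 30 deg C. Growth read by BacTiter-Glo luminescence, so rescue of toxicity appears as activation.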

Compound | growth rescue (activation)
Cc1cc(C(=O)N/N=C/c2c(C)nn(-c3ccccc3)c2C)c(C)o1 | inactive: 14.9%
O=C(COC(=O)c1ccc2c(c1)C(=O)N(Cc1ccco1)C2=O)NCC(F)(F)F | inactive: -16.1%
C=CCC(CC(O)COCCC)C(=O)NNC(=S)Nc1ccccc1 (stereo unspecified) | inactive: 17%
COc1ccc(N(CC(=O)Nc2cc(C)cc(C)c2)S(=O)(=O)c2ccccc2[N+](=O)[O-])c(OC)c1 | inactive: 10.7%
CC1CCCC(C)N1C(=O)COC(=O)c1ccc(S(=O)(=O)N(C)c2ccccc2)cc1 (stereo unspecified) | inactive: 6.28%
COc1ccc(N(C(=O)c2snc(C(N)=O)c2N)C(C(=O)NC2CCCC2)c2ccco2)cc1OC (stereo unspecified) | inactive: -0.242%
Nc1nc(-c2cccc(F)c2)cs1 | inactive: 25.9%
O=C(COc1ccccc1C(=O)O)Nc1nc2ccc([N+](=O)[O-])cc2s1 | inactive: 3.7%
Cc1nc2ccc(S(=O)(=O)N(C)CC(=O)Nc3ccc(C(C)C)cc3)cc2s1 | inactive: 12.9%
CC(NC(=O)COC(=O)C12CC3CC(CC(O)(C3)C1)C2)c1ccccc1 (stereo unspecified) | inactive: 7.61%
Cc1noc(NS(=O)(=O)c2ccc(NC(=O)/C=C/c3ccccc3)cc2)c1C | inactive: 11.4%
Cc1ccc(S(=O)(=O)NNC(=O)c2sc(NS(=O)(=O)c3ccccc3)nc2C)cc1 | inactive: 11%
CCOC(=O)c1c(NC(=O)CSc2nnc(-c3ccc(Cl)cc3)o2)sc2c1CCC2 | inactive: -28.8%
Cc1ccc(S(=O)(=O)N2CCN(CCc3ccncc3)CC2)cc1 | inactive: 3.9%
O=C(Nc1cc(Cl)ccc1N1CCOCC1)c1ccc(=O)[nH]c1 | inactive: -7.04%
CCSCCOC(=O)C1=C(C)N(C)C(=O)NC1c1cc(OC)ccc1OC (stereo unspecified) | inactive: 0.305%
O=C(NCCCN1CCCC1)[C@H](CSCc1ccccc1)N1Cc2ccccc2C1=O | inactive: -33.2%
C#CC1(NC(=O)NCCCC)CCCCC1 | inactive: 11.3%
CC(=O)N1CCC(N(CCN2CCOCC2)C(=S)Nc2ccc(C)cc2C)CC1 | inactive: 5.91%
CCc1ccc(CN(C)CC(=O)Nc2ccc3c(c2)CCC3)cc1 | inactive: -5.9%
COc1ccc(NC(=O)CSc2ccc3c(c2)OCCO3)cc1S(N)(=O)=O | inactive: 8.4%
CSc1nsc(SCC(=O)Nc2ccccc2C(=O)O)n1 | inactive: 1.59%

Compound | growth rescue (activation)
Cc1ccc(C(=O)/C=C/Nc2cccc([N+](=O)[O-])c2)o1 | inactive: 1.96%
O=[N+]([O-])c1cc(S(=O)(=O)N2CCOCC2)ccc1NS(=O)(=O)c1ccccc1 | inactive: 7.75%
COc1ccc(S(=O)(=O)Nc2ccccc2Cl)cc1NC(C)=O | inactive: -19.7%
CN(C)S(=O)(=O)c1ccc(C(=O)OCC2COC(C)(C)O2)cc1 (stereo unspecified) | inactive: 15.5%
CCOC(=O)C1CCC(CN(Cc2ccccc2)S(=O)(=O)c2ccc([N+](=O)[O-])cc2)CC1 (stereo unspecified) | inactive: -2.59%
Cc1cc(=O)n2ncnc2n1COCCO | inactive: -1.77%
CC(=O)c1c(C)[nH]c(C(=O)CSc2ccc(F)cc2)c1C | inactive: -4.53%
COc1ccc(C)cc1S(=O)(=O)Nc1cccc(C)c1 | inactive: 5.72%
COC(=O)NNC(=S)NCc1ccc(C)cc1 | inactive: 18.5%
Cc1ccc(NC(=O)CSc2nnc(-c3ccco3)o2)c(C)c1 | inactive: 9.74%
CCOC(=O)N1CCN(C(=O)COC(=O)c2cc(Cl)cc(Cl)c2)CC1 | inactive: 31.5%
COc1ccc2oc(C(=O)NCCN3CCOCC3)c(C)c2c1OC | inactive: -7.95%
Cc1ccc(C)c(Cn2c(O)c(N=NC(=S)Nc3ccccc3F)c3ccccc32)c1 | inactive: -13%
COc1ccc(NC(=O)/C=C/c2ccc(C)o2)cc1S(=O)(=O)N1CCOCC1 | inactive: 4.47%
COc1ccc2c(CC(=O)NNC(=O)c3ccc(O)cc3)coc2c1 | inactive: 16.7%
CCOC(=O)c1[nH]c(C)c(C(=O)OCC(=O)Nc2sc3c(c2C#N)CCCCC3)c1C | inactive: 10.9%
O=C(Nc1ccc2c(c1)CN(Cc1ccco1)CC2)C1CCCO1 (stereo unspecified) | inactive: 14.7%
COc1cc(C(=O)NCC(=O)N/N=C\C(C)=C/c2ccccc2)cc(OC)c1OC | inactive: 1.76%
CC(C)Nc1ncnc2c1ncn2[C@H]1CN(CCN2CCOCC2)C[C@@H](CO)O1 | inactive: 16.4%
CC(c1n[nH]c(=S)n1-c1ccccc1)N1CCCCC1 (stereo unspecified) | inactive: -5.2%
COCCNC(=S)N/N=C(\C)c1ccc(OC)cc1 | inactive: 17%
CCOC(=O)c1cnc2c(C#N)c(C)nn2c1C | inactive: 2.21%

Compound | growth rescue (activation)
CC(=O)Nc1ccc(S(=O)(=O)NNc2cccc(C)c2)cc1 | inactive: 15.3%
Cc1ccc(C)c(OCC(=O)Nc2ccc(S(=O)(=O)Nc3onc(C)c3C)cc2)c1 | inactive: 9.26%
Cn1nnnc1SCC(=O)NCc1cc([N+](=O)[O-])ccc1O | inactive: 7.3%
N#C/C(=C\c1ccccc1OCc1ccc(C(=O)O)cc1)c1ccccc1 | inactive: 16.9%
CCCN(CCC)CCCNC(=O)CN1C(=O)CSc2ccc(S(=O)(=O)N3CCOCC3)cc21 | inactive: -1.7%
C=CCc1c(C)nc(SCc2nc3ccccc3c(=O)[nH]2)[nH]c1=O | inactive: 28.9%
COc1ccc(CCNC(=O)CSC2=Nc3ccccc3C3=NC(C(C)C)C(=O)N23)cc1OC (stereo unspecified) | inactive: 11.8%
CCN(CC)C(=S)SCC(=O)NC12CC3CC(CC(C3)C1)C2 | inactive: -7.93%
O=C(Cn1nc(-c2ccccc2)oc1=O)OCC(=O)c1ccccc1 | inactive: -13.7%
CCC(=O)NC(=S)Nc1ccc(NC(=O)c2ccco2)cc1 | inactive: 15.3%
O=C(CNc1cccc([N+](=O)[O-])c1)N1CCN(S(=O)(=O)c2ccc(Cl)cc2)CC1 | inactive: 18.1%
COc1ccc(CCNC(=O)COC(=O)/C=C/c2ccc3c(c2)OCO3)cc1 | inactive: -0.247%
CCN(c1ccccc1)S(=O)(=O)c1ccc(OC)c(NC(=O)C2=NN(c3ccccc3)C(=O)CC2)c1 | inactive: 2.12%
O=C(CSc1nnc(-c2ccco2)o1)c1ccc(O)cc1O | inactive: 9.58%
CCN(CC)C(=O)C1CCCN(C(=S)Nc2cccc3ccccc23)C1 (stereo unspecified) | inactive: 7.77%
COc1ccc(C(=O)Nc2ccnn2C2CCN(CC3CC=CCC3)CC2)cc1 (stereo unspecified) | inactive: 2.33%
CC(C)CCOP(=O)(c1ccc(N(C)C)cc1)C(O)c1ccc(Cl)cc1Cl (stereo unspecified) | inactive: -73.6%
CC(=O)Nc1ccc(NC(=O)COC(=O)Cn2cnc3ccccc32)cc1 | inactive: 9.1%
COc1ccc(S(=O)(=O)Nc2ccccc2C(=O)N2CCOCC2)cc1C | inactive: -7.28%
Cc1cc(NC(=O)c2cncc(Br)c2)n(-c2ccccn2)n1 | inactive: 5.83%
CCOC(=O)C1(C)CCN1C(=O)c1cc(OC)ccc1Br (stereo unspecified) | inactive: 3.63%
O=c1cnn(Cc2c(Cl)cccc2Cl)c2ccccc12 | inactive: -20.1%

Compound | growth rescue (activation)
O=C(CN1CCN(c2ccc(O)cc2)CC1)Nc1ccc(S(=O)(=O)N2CCCC2)cc1 | inactive: -20%
CC(C)(CCC(=S)N1CCOCC1)C1CCCCC1 | inactive: 23.7%
CCC1(c2ccccc2)NC(=O)N(CC(=O)NCc2ccccc2OC)C1=O (stereo unspecified) | inactive: 7.15%
NNC(=O)c1sc2cc(C(F)(F)F)cnc2c1-c1cccs1 | inactive: 11.4%
CC(C)CNC(=O)C1CCN(Cc2ccc(OCc3ccccc3)cc2)CC1 | inactive: 7.62%
O=C(O)C(=O)Nc1ccc(NC(=O)C(c2ccccc2)c2ccccc2)cc1 | inactive: 8.85%
CCc1ccccc1NC(=O)CC1NCCNC1=O (stereo unspecified) | inactive: 5.25%
CCC(CC)C(=O)N(C)c1c(C)nc2c(OCc3ccc(F)c(F)c3)cccn12 | inactive: 14.1%
CCCCc1nnc(NC(=O)C2CC(=O)N(c3ccc(C)cc3)C2)s1 (stereo unspecified) | inactive: 0.673%
O=C(Oc1ccc(C(=S)N2CCC(O)CC2)cc1)c1ccc(Cl)cc1 | inactive: 23.7%
CCCC(C(=O)NC1=NCCS1)c1ccccc1 (stereo unspecified) | inactive: 1.97%
CC(=O)Nc1cccc2c1C(=O)N(c1cccc(OC(C)=O)c1)C2=O | inactive: -1.91%
CC(C)C(=O)Nc1nc2ccc(S(C)(=O)=O)cc2s1 | inactive: 2.41%
COc1ccc(N2CCN(C(=O)c3cc4ccccc4o3)CC2)cc1 | inactive: 12.4%
COc1cc(/C=C/C(=O)O)cc(S(=O)(=O)Nc2ccc(F)cc2)c1OC | inactive: 0.633%
Cc1ccc(-c2nc3ncccc3o2)cc1NC(=O)c1ccccc1 | inactive: -10.2%
COc1cccc(CNC(=O)CCC2CCCN(c3cc(C)nc(N(C)C)n3)C2)c1 (stereo unspecified) | inactive: 9.4%
CNc1nc(-c2cccc(C(=O)N(C)C)c2)cn2ccnc12 | inactive: 3.93%
O=c1[nH]cnc2c1sc1nc(-c3ccccc3)c3c(c12)CCCC3 | inactive: 10.3%
Cc1c(C(=O)NC2CCN(Cc3ccccc3)C2)oc2ccc(Br)cc12 (stereo unspecified) | inactive: 6.09%
CCn1c(N2CCN(CC(=O)c3c(C)n(C)c4ccccc34)CC2)nc2c1c(=O)[nH]c(=O)n2C | inactive: 12.1%
COc1cc(C(C)=O)ccc1OCC(=O)N1CCc2ccccc2C1 | inactive: 8.28%

Compound | growth rescue (activation)
CCOC(=O)CCSc1nc(N2CCOCC2)c2c(c1C#N)CC(C)(C)OC2 | inactive: 2.04%
CC(Cl)C(=O)NNC(=O)CNS(=O)(=O)c1ccccc1 (stereo unspecified) | inactive: 2.75%
CCOC(=O)C1(C)CCCN1C(=O)c1ccc(N(C)C)cc1 (stereo unspecified) | inactive: 14.2%
Cc1ccc(SCc2cc(=O)[nH]c(Nc3nc(C)c4ccc(C)cc4n3)n2)cc1 | inactive: 11.8%
CCOc1cc(NC(=S)NC)c(OCC)cc1NC(=O)c1ccco1 | inactive: 7.78%
CCc1ccc(CN(C)C(=O)CCc2nnc(CCc3ccccc3OC)o2)nc1 | inactive: 12.8%
O=[N+]([O-])c1ccc(Cl)c(S(=O)(=O)/N=C(/Nc2cccnc2)c2ccccc2)c1 | inactive: 7.47%
CN(C)c1ccnc(Nc2ccc(F)cc2)c1C#N | inactive: 9.98%
Cc1ccc(NS(=O)(=O)c2cc(C(=O)NCc3cccnc3)ccc2C)cc1 | inactive: 12.7%
COc1cc(CN2CCN(Cc3ccccc3C(F)(F)F)CC2)cc(OC)c1OC | inactive: -1.97%
O=C(O)C1CCC(Cn2c(SCc3cc(=O)n4cc(Cl)ccc4n3)nc3ccsc3c2=O)CC1 (stereo unspecified) | inactive: -7.15%
CC(=O)c1cc(F)ccc1OCC(=O)N1CCCc2ccccc21 | inactive: 32.3%
CN(C)c1ccc(NS(=O)(=O)c2ccc(Cl)cc2)cc1 | inactive: 11.6%
NS(=O)(=O)c1ccc(NC(=O)c2cc(=O)c3ccccc3o2)cc1 | inactive: 8.85%
COC(=O)c1sc(NC(=S)NC(=O)c2ccccc2Cl)nc1C | inactive: 16.4%
CCn1c2ccccc2c2cc(CN3CCN(Cc4cccc(Cl)c4)CC3)ccc21 | inactive: 10.7%
O=C(Nc1cc(S(=O)(=O)Nc2ccccc2Cl)ccc1O)c1sc2cc(Cl)ccc2c1Cl | inactive: 3.81%
Cc1ccc(C(=O)O)cc1NC(=O)c1nsc2ccccc12 | inactive: 6.57%
